Data taken from the supplement of paper PMC12217912.
Some of the results follow. The full chains were built here from the parent and the listed change. Inactive controls read about 0.05.

B1: TEV protease; numbered along this chain (parent)
chain: MGESLFKGPRDYNPISSSICHLTNESDGHTTSLYGIGFGPFIITNKHLFRRNNGTLVVQSLHGVFKVKDTTTLQQHLVDGRDMIIIRMPKDFPPFPQKLKFREPQREERICLVTTNFQTKSMSSMVSDTSCTFPSGDGIFWKHWIQTKDGQCGSPLVSTRDGFIVGIHSASNFTNTNNYFTSVPKNFMELLTNQEAQQWVSGWRLNADSVLWGGHKVFMVKPEEPFQPVKEATQL

Variants of: B1
Assay: raw area under fraction-flipped curve 0-4 h after induction (AUC4h, not background-subtracted), DNA-recorder readout of cleavage of the substrate (dimensionless); higher = more cleavage of the substrate by the protease variant
Conditions: temperature: 34 °C; time window: 0-4 h after rhamnose induction
Method: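 In vivo DNA recorder in E. coli TOP10(DE3) ΔrhaA at 34 °C. Each TEVp single-site mutant (parent TEVp 0) is paired with a single-site variant of the 7-mer TEVs (canonical ENLYFQ|S). The substrate sits between flexible linkers in a Bxb1-sfGFP-TEVs-SsrA fusion, so cleavage stabilises Bxb1 and speeds flipping of a recombination array, read by NGS. The value is the raw area under the fraction-flipped curve over 0-4 h after rhamnose induction (AUC4h), with ≥20 reads per time point. It is not background-subtracted; inactive controls average about 0.047.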
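Note: Bxb1 expression induced with 0.2% (w/v) L-rhamnose at OD600 near 0.5, cultures sampled hourly, flipped fraction per protease–substrate barcode pair counted by paired-end Illumina sequencing.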

Row | Variant | area with substrate ENLAFQS | area with substrate ENLDFQS | area with substrate ENLEFQS | area with substrate ENLFFQS | area with substrate ENLHFQS | area with substrate ENLIFQS | area with substrate ENLKFQS | area with substrate ENLMFQS | area with substrate ENLNFQS | area with substrate ENLPFQS | area with substrate ENLQFQS | area with substrate ENLRFQS | area with substrate ENLSFQS | area with substrate ENLVFQS | area with substrate ENLCFQS | area with substrate ENLLFQS | area with substrate ENLWFQS | area with substrate ENLTFQS | area with substrate ENLGFQS
1 | R51I | 0.0633 | 0.0653 | 0.0526 | 0.0744 | 0.07 | 0.072 | 0.0812 | 0.0753 | 0.0762 | 0.0613 | 0.0594 | 0.0638 | 0.0625 | 0.0704 | – | – | – | – | –
2 | P104A | 0.0538 | 0.0596 | 0.0958 | 0.104 | – | 0.0878 | 0.0689 | 0.0788 | 0.0701 | – | – | – | – | – | 0.0621 | 0.0758 | 0.0779 | – | –
3 | P104N | 0.0772 | 0.0533 | 0.0514 | 0.0527 | 0.0401 | – | 0.0554 | 0.0637 | 0.0414 | 0.0462 | 0.0571 | – | – | 0.0442 | 0.0459 | – | 0.0351 | – | –
4 | P104H | 0.0546 | 0.0538 | 0.0572 | 0.0728 | 0.0518 | 0.0413 | 0.0449 | – | 0.0497 | – | 0.0591 | 0.052 | 0.0595 | – | – | 0.0883 | 0.0616 | – | –
5 | P104V | 0.0644 | 0.058 | 0.0551 | 0.066 | 0.0657 | 0.0659 | 0.0717 | 0.0864 | 0.0648 | 0.0638 | – | – | 0.0408 | 0.121 | – | 0.0665 | 0.0564 | 0.0453 | –
6 | L56F | 0.0498 | 0.0621 | 0.0593 | 0.0676 | 0.0611 | 0.0539 | 0.0716 | 0.075 | 0.0645 | 0.0606 | 0.0634 | 0.0697 | 0.0575 | 0.0781 | – | 0.0606 | 0.0704 | – | 0.0596
7 | L56G | 0.0308 | – | – | 0.0663 | 0.0441 | – | 0.0545 | – | 0.0457 | 0.0449 | – | – | 0.0514 | 0.0491 | 0.0558 | 0.0503 | – | – | –
8 | L56H | 0 | 0.0499 | – | 0.0821 | – | 0.0482 | 0.0564 | – | 0.0232 | 0.0519 | 0.0417 | 0.0468 | 0.0613 | 0.0508 | – | – | 0.0462 | – | –
9 | L56R | 0.036 | 0.0462 | – | 0.0544 | 0.0252 | 0.038 | 0.0625 | 0.0555 | 0.0459 | 0.0481 | 0.053 | – | 0.0365 | – | – | – | 0.0504 | – | 0.0511
10 | R102I | 0.0434 | 0.0482 | 0.0442 | 0.045 | 0.0511 | – | 0.0495 | – | – | 0.0547 | 0.0567 | 0.0541 | – | – | 0.0364 | – | – | – | –
11 | R106G | 0.0706 | 0.0751 | – | 0.0685 | 0.0653 | – | – | – | – | 0.066 | – | – | 0.0663 | – | – | 0.0781 | 0.0576 | – | 0.0683
12 | R106K | 0.0656 | – | 0.0595 | – | 0.0594 | 0.0848 | – | – | – | – | – | – | – | – | – | 0.0796 | – | – | –
13 | T72F | 0.0694 | 0.0651 | – | 0.0932 | – | 0.0807 | 0.0702 | 0.0635 | 0.0681 | 0.0631 | 0.0566 | 0.0634 | 0.0776 | – | 0.0828 | – | 0.0559 | – | –
14 | V64A | 0.069 | 0.0755 | – | 0.0983 | 0.0604 | 0.0691 | 0.0356 | 0.0756 | 0.0622 | – | – | 0.0766 | 0.0598 | – | 0.0773 | 0.0754 | – | 0.0653 | –
15 | V64D | 0.0502 | 0.0646 | 0.0541 | 0.116 | 0.0557 | 0.0763 | 0.0885 | – | 0.0833 | – | – | 0.0594 | 0.0666 | 0.0796 | – | – | – | – | –
16 | V64G | 0.0669 | 0.0658 | – | 0.0739 | 0.0676 | 0.0629 | 0.0703 | – | 0.066 | 0.0539 | – | – | – | – | 0.0504 | – | 0.0647 | – | –
17 | V64M | 0.0728 | 0.108 | 0.0527 | 0.087 | 0.0743 | 0.0874 | 0.0768 | – | 0.0763 | 0.0586 | 0.0714 | – | 0.0534 | – | 0.0697 | – | 0.0602 | – | –
18 | I110V | 0.0606 | 0.0546 | 0.0607 | 0.0947 | 0.0651 | 0.123 | 0.0648 | 0.0766 | 0.0663 | – | 0.0416 | 0.117 | 0.0533 | 0.0885 | 0.0731 | – | 0.0622 | – | –
19 | N52G | 0.0591 | 0.0579 | 0.0622 | 0.0747 | 0.0682 | 0.0538 | 0.105 | – | 0.0441 | 0.0618 | 0.067 | 0.058 | 0.0643 | – | 0.0616 | 0.0685 | 0.0601 | – | –
20 | L61C | 0.0617 | 0.0624 | 0.0703 | 0.0946 | 0.101 | 0.0909 | 0.0812 | 0.0771 | 0.0641 | 0.0674 | 0.0659 | 0.0813 | 0.0637 | 0.0886 | 0.0774 | 0.0672 | – | 0.0682 | 0.0572
21 | P96Q | 0.077 | 0.0819 | 0.0525 | 0.0932 | 0.0664 | – | 0.0753 | – | 0.0636 | – | 0.0557 | – | 0.0672 | – | – | 0.0598 | 0.0605 | – | –
22 | P96H | 0.069 | 0.0823 | 0.0682 | 0.0705 | 0.0678 | 0.0618 | 0.0783 | – | 0.0357 | 0.0439 | – | 0.0744 | 0.0802 | – | 0.0741 | 0.0634 | – | – | –
23 | L112A | 0.0645 | 0.0632 | – | 0.07 | 0.0559 | 0.0692 | 0.0695 | 0.0623 | 0.0748 | 0.0517 | – | 0.0682 | 0.0633 | 0.0728 | 0.0682 | 0.057 | 0.0615 | 0.0703 | 0.0689
24 | F95Y | 0.0392 | 0.0459 | 0.0597 | 0.0637 | 0.0809 | 0.0876 | 0.0936 | – | – | – | 0.1 | 0.0804 | – | – | 0.0713 | 0.0767 | 0.0444 | – | 0.063
25 | I85L | 0.0794 | 0.0673 | – | 0.094 | 0.0645 | 0.116 | 0.0897 | 0.0786 | 0.0721 | 0.0637 | 0.0907 | – | 0.0751 | 0.119 | – | – | – | – | –
26 | R81H | 0.0545 | 0.0687 | 0.0591 | 0.108 | 0.0615 | 0.0682 | 0.0722 | 0.0804 | 0.0652 | 0.0727 | 0.0626 | 0.0686 | 0.0605 | – | 0.0518 | 0.0587 | – | – | 0.0659
27 | K66S | 0.0524 | 0.0673 | – | 0.0909 | – | – | – | – | 0.0679 | 0.0732 | 0.0239 | – | – | – | – | 0.0298 | – | – | –
